# From PubChem BioAssay AID2782 (National Center for Advancing Translational Sciences (NCATS), 2010)
# Inconclusive results, whose numbers are uncertain, are shown with a selection of clear calls. Where the call is inconclusive, the potency comes from a doubtful curve fit. A note “side channel” means that the fit belongs to a control or component signal, not to the main read-out. Calls of active or inactive are those of the source. Calls follow the shape of the dose curve; as a rule, active = well fitted inhibition curve with a large enough effect in the polarisation, with a control signal flat (not every such curve was filed as active); inconclusive = small, poorly fitted or top-dose-only effect, or effect the other way, or a change in a side signal; inactive = no such curve, though single readings can be large or run the other way; the % refers to the polarisation.
# Experiment: Confirmation of Inhibitors Targeting the Menin-MLL Interaction in MLL Related Leukemias: Competition With Texas Red Labeled MLL-derived Mutant Peptide
# Details: fluorescence polarization, Texas Red MLL peptide displacement; series mostly up to 94.6 µM
# Method in brief: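 FP competition using menin at 200 nM with Texas Red-labeled mutant MLL peptide (50 nM) plus fluorescein MLL-w.t. peptide (25 nM) in 50 mM Tris-HCl pH 7.5, 50 mM NaCl, 1 mM DTT, 0.05% BSA; compound added, 1 hr ambient; polarization read per label.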
# Potency is read from the fitted curve at half-maximal effect; tags tell the direction and shape of the fitted curve or compound fluorescence and quenching.
row,SMILES,Potency
1,CN(C)CCCNCC(=O)c1c(-c2ccccc2)n(C)c2ccccc12,"inconclusive: 56.4 µM [fluorescent, side channel, partial curve]"
2,COc1cc(OC)c2ccc(=O)oc2c1C(CCN1CCOCC1)c1ccc(N(C)C)cc1 (stereo not drawn),inactive
3,CC(=O)c1cccc(NS(=O)(=O)c2ccc(N/C=C\C(=O)c3ccc(F)cc3)cc2)c1,"inconclusive: 22.4 µM [inhibitor, full curve]"
4,O=S(=O)(Nc1cccc(-c2cn3cccnc3n2)c1)c1ccccc1,inactive
5,CCN1CCN(CC(=O)Nc2ccc(C(C)=O)cc2)CC1,inactive
6,NC(=O)C1CCN(C2=C(Cl)C(=O)c3ccccc3C2=O)CC1,"inconclusive: 141 µM [quencher, side channel, partial curve]"
7,O=C(COC(=O)c1ccc(NS(=O)(=O)c2cccs2)cc1)Nc1nc2c(F)c(F)c(F)cc2s1,active: 14.2 µM
8,C=C(C)[C@@H]1CC=C(CN2CCN(Cc3ccccc3)CC2)CC1,"inconclusive: 63.2 µM [fluorescent, side channel, partial curve]"
9,N=C1c2ccccc2CN1c1ccc(N2CCOCC2)c(S(=O)(=O)Nc2ccc(Cl)cc2)c1,active: 141 µM
10,COc1cc(SC)ccc1C(=O)Nc1cccc(C2OCCCO2)c1,inactive
11,COc1ccc(-c2csc(NC(=S)NC(=O)/C=C/c3ccc(C(C)C)cc3)n2)cc1OC,active: 17.8 µM
12,CC1CCCN(S(=O)(=O)c2ccc(C(=O)Nc3ccccc3-c3nc4ccccc4[nH]3)cc2)C1 (stereo not drawn),"inconclusive: 15.9 µM [inhibitor, full curve]"
13,CC(C)Sc1nc(N2CCOCC2)c2c3c(sc2n1)COC(C)(C)C3,"inconclusive: 31.7 µM [fluorescent, side channel, partial curve]"
14,c1ccc2c(c1)nc(N1CCOCC1)c1c3ccccc3[nH]c21,inactive
15,Cc1sc2ncnc(NC3CCN(Cc4ccccc4)CC3)c2c1C,active: 28.2 µM
16,Cc1ccc(-c2cc(C(=O)Nc3cc(C)ccc3O)no2)cc1,"inconclusive: 28.3 µM [inhibitor, partial curve]"
17,NC(=NCCCCCCN=C(N)/N=C(\N)Nc1ccc(Cl)cc1)/N=C(\N)Nc1ccc(Cl)cc1,active: 70.8 µM

row,SMILES,Potency
1,O=S(=O)(c1ccc(-c2csc(Nc3ccc(Br)cc3)n2)cc1)N1CCCC1,"inconclusive: 25.1 µM [quencher, side channel, full curve, poor fit]"
2,Cc1cc2c(N)cccc2nn1,active: 141 µM
3,COc1ccccc1NS(=O)(=O)c1cc(NC(=O)Nc2cccc(C)c2)ccc1N1CCCCC1,"inconclusive: 39.9 µM [fluorescent, side channel, partial curve]"
4,CC(=O)c1ccc2c(c1)N(CCCN1CCC(CCO)CC1)c1ccccc1S2,"inconclusive: 25.2 µM [fluorescent, side channel, partial curve]"
5,COc1cccc(C(C[N+](=O)[O-])c2c(C)[nH]n(-c3ccccc3)c2=O)c1 (stereo not drawn),"inconclusive: 126 µM [inhibitor, partial curve, poor fit]"
6,O=C(Nc1cccn(Cc2c(Cl)cccc2Cl)c1=O)c1c(Cl)cccc1Cl,inactive
7,COc1ccccc1C(=O)Nc1ccnn1C1CCN(CC2CC=CCC2)CC1 (stereo not drawn),active: 126 µM
8,CCCC[n+]1c2ccccc2cc2ccccc21,"inconclusive: 28.3 µM [inhibitor, full curve]"
9,O=C(Nc1nnc(-c2ccccc2SCc2ccccc2)s1)Nc1ccccc1F,active: 22.4 µM
10,CNC[C@H](CC1CCCCC1)NC[C@H](Cc1ccccc1)NCCC12CC3CC(CC(C3)C1)C2,active: 63.1 µM
11,COc1ccc(-c2csc(NC(=O)c3cc(-c4cccs4)nc4ccccc34)n2)c(OC)c1,"inconclusive: 12.6 µM [inhibitor, partial curve]"
12,COCC(=O)Nc1cccc2ccccc12,inactive
13,O=C(Nc1ccc(F)c(Cl)c1)c1cc(-c2ccco2)on1,active: 31.7 µM
14,O=C1C(Cl)=C(NC(=O)c2ccccc2)C(=O)C(Cl)=C1NC(=O)c1ccccc1,"inconclusive: 100 µM [quencher, side channel, full curve]"
15,O=C(CCn1nc(-c2ccccc2)ccc1=O)N1CCN(c2ccccn2)CC1,inactive
16,CC(=O)c1cccc(OCC(O)CNCC2COc3ccccc3O2)c1 (stereo not drawn),"inconclusive: 56.4 µM [fluorescent, side channel, partial curve]"
